Structures are written as SMILES. Out of some 150,000 compounds screened, about 540 (0.36%) showed an effect of 50% or more. Some of the results follow.

The subject of this experiment is Plasmodium falciparum. As to the kind of experiment: Primary screen in NF54 nanoGlo assay, in single point, at 2uM, 72h; a lower Z score goes with more inhibition. It is filed as functional, Erythrocyte. As to conditions: timepoint 72 hour.
As a reminder, the % Inhibition is the change of the read-out against control, counted positive when it falls. For the molecule `Cc1nc([C@H](C)NC(=O)c2cc(C(C)C)nc(N)n2)cs1`, the “% Inhibition” value was -9% and the Z score amounted to 1.11.
The like results for `Cc1ccc2cc3c(nc2c1)N(S(=O)(=O)c1ccccc1)CC3` were, in that order, -1% and 0.08.
The like results for `COc1cc(Cl)c(C)cc1NC(=O)CN(C)[C@@H](C)c1ccccn1` were, in that order, -1% and 0.12.
`CC1(C)CC(=O)N(c2nc3ccccc3s2)C(=O)C1`: the “% Inhibition” value is given as -8% and the Z score turned out to be 0.99.
The like results for `CN(CC1(O)CCCC1)C(=O)NC1CC(c2ccc(F)c(Cl)c2)C1` (centres undefined) were, in that order, -10% and 1.55.
Taken in the same sequence, the figures for `COc1cccc(CNC(=O)CN2C=NS(=O)(=O)c3ccccc32)c1` were 9% and -1.06.
Taken in the same sequence, the figures for `CO[C@@H](CNS(=O)(=O)c1cccnc1)c1ccccc1C` were 18% and -2.33.
Take `Clc1cc(CN2CCOCC3(CCC3)C2)cc2c1OCCO2`: the “% Inhibition” value is -8% and the Z score amounted to 1.
As for `CCN(CC)S(=O)(=O)c1ccc2[nH]c3nc(N)nnc3c2c1`, the “% Inhibition” value was 4% and the Z score is listed as -0.55.
The like results for `O=C(C[C@H]1CCCOC1)NCc1noc(-c2ccccc2)n1` were, in that order, -3% and 0.5.
Taken in the same sequence, the figures for `Cc1cc(Cl)ccc1CNc1nncn1C` were 12% and -1.41.
As to `CC(C)(CNC(=O)c1cc[nH]c1C1CCC1)C1(O)CCOCC1`, the “% Inhibition” value was 18% and the Z score was -3.42.
Turning to `CCC(CC)C(=O)Nc1ccc(C)cc1C`, the “% Inhibition” value is 3% and the Z score is given as -0.46.
The like results for `CCCc1noc(CN(C)Cc2[nH]cc(C)c(=O)c2C)n1` were, in that order, -12% and 1.65.
Turning to `CCOC(=O)C1CCN(C2CCN(Cc3nc(-c4ccccc4)no3)CC2)CC1`, the “% Inhibition” value was -7% and the Z score is 1.06.
As for `C[C@H](NC(=O)c1ccc(OC2CCOCC2)nc1)C(N)=O`, the “% Inhibition” value is recorded as -5% and the Z score amounted to 0.89.
Taken in the same sequence, the figures for `CCn1cc(S(=O)(=O)NC(c2ccc3c(c2)CCO3)[C@H]2C[C@@H](O)C2)cn1` (some centres undefined) were 0% and -0.08.
Consider `Cc1cc(NC(=O)C2CCCC2)n(-c2nc3c(cnn3-c3ccc(Cl)cc3)c(=O)[nH]2)n1`, for which the “% Inhibition” value is recorded as -3% and the Z score amounted to 0.5.
Consider `CN(C)CCN(C1CCCCC1)S(=O)(=O)c1c[nH]c(C(=O)N2CCCC2)c1`, for which the “% Inhibition” value is recorded as -9% and the Z score was determined as 1.06.
Taken in the same sequence, the figures for `Cc1nc(CN2CCCN(c3nc4ccc(F)cc4o3)CC2)oc1C` were -10% and 1.22.
Take `COCCN(CC1(C)CCOCC1)C(=O)NCC(C)C`: the “% Inhibition” value was -1% and the Z score amounted to 0.28.
The like results for `O=C(NCc1ccc2c(c1)OCO2)N1CCCC[C@H]1c1nc2ccccc2[nH]1` were, in that order, -8% and 1.41.
Taken in the same sequence, the figures for `CN(Cc1ccnn1C)c1ncc(F)cn1` were -9% and 1.15.
The like results for `CCS(=O)(=O)c1ccccc1NC1CC=CC1` were, in that order, 0% and -0.03.
In the case of `C[C@@H](Cn1cncn1)NC(=O)Nc1cccc(C(=O)N2CCN(C)CC2)c1`, the “% Inhibition” value was -6% and the Z score is 1.1.
Taken in the same sequence, the figures for `CC(C)CC(=O)Nc1ccc(S(=O)(=O)N(C(=O)CC(C)C)c2ncccn2)cc1` were 0% and 0.02.
Taken in the same sequence, the figures for `CCCc1nc(C)cc(N2CCn3nc([C@@H](O)c4ccnn4C)cc3C2)n1` were -22% and 2.76.
Regarding `CCCC(=O)N1CC(N2CCc3ccccc3C2)C1`, the “% Inhibition” value is listed as 2% and the Z score is -0.34.
The like results for `O=C(Nc1cc2cc[nH]c2cn1)[C@H]1CC[C@@H](C(=O)N2CCOCC2)O1` were, in that order, -20% and 2.16.
The like results for `CN(C)C(=O)c1cc2c(s1)CC[C@H](C(=O)NCCN1CCOCC1)C2` were, in that order, 36% and -0.76.
Turning to `O=C(CCc1ccsc1)N1CCC[C@H]1c1ncc[nH]1`, the “% Inhibition” value is listed as -1% and the Z score was 0.15.
The like results for `O=C(Nc1nc2ccccc2s1)c1ccc(OCc2nc(C3CC3)cs2)cc1` were, in that order, -11% and 2.11.
Taken in the same sequence, the figures for `CCOc1ccc(Cl)cc1CCNC(=O)[C@H](C)c1cccnc1` were 4% and -0.59.
In the case of `Cc1cccc2nnc(N3CCC(C(=O)NCc4ccc(C(F)(F)F)cc4)CC3)n12`, the “% Inhibition” value was -4% and the Z score came to 0.87.
In the case of `CCn1nc(CC(C)C)cc1C(=O)NCCc1nc(C)c2c(n1)CCC2`, the “% Inhibition” value is recorded as -1% and the Z score was 0.16.
Taken in the same sequence, the figures for `Cc1noc(C)c1S(=O)(=O)N(C)CC=Cc1ccccc1` were -8% and 1.07.
Take `Cc1cccc([C@@H](NC(=O)N(C)CCO)C(F)(F)F)c1`: the “% Inhibition” value is reported as -3% and the Z score was determined as 0.26.
Taken in the same sequence, the figures for `CC(C)c1nc(C2CCN(C(=O)[C@H]3CCNC(=O)C3)CC2)no1` were 3% and -0.47.
The like results for `C=CCN1C(=O)C2(CCCCC2)N[C@]12C(=O)Nc1cc(O)ccc12` were, in that order, -9% and 1.74.
The like results for `Cc1nc(C)c(-c2ccc(C(=O)NCc3ccc(C(=O)N(C)C)o3)cc2)[nH]1` were, in that order, -4% and 0.75.
For `COc1ccccc1C1(CNc2nccn3c(C)nnc23)CC1`, the “% Inhibition” value was -14% and the Z score was 1.28.
Taken in the same sequence, the figures for `O=C(NCc1cccc2c1OCO2)c1scnc1C1CCCC1` were -10% and 1.41.

For the origin of these results see ChEMBL document CHEMBL4888484, “Replenishing the malaria drug discovery pipeline: Screening and hit evaluation of the MMV Hit Generation Library 1 (HGL1) against asexual blood stage Plasmodium falciparum ,using a nano luciferase reporter read-out” (2022).
